Laboratory results published in publication PMC7819943, “Rice protein-binding microarrays: a tool to detect cis-acting elements near promoter regions in rice”.
The other results are listed elsewhere or left out.

Each sequence was assayed against T1, OsWOX13 (Oryza sativa, UniProt Q5QMM3 1-267) (assay: protein-binding microarray (RPBM); PBS, 2% BSA, 51.3 ng/ul salmon testes DNA, 50 uM zinc acetate, 200 nM TF, 25 C, 1 h; high values mean tight binding). Conditions: protein: recombinant; tags: N-terminal polyhistidine and DsRed monomer fusion (pET32a); label: CyDye5-dUTP incorporated in the synthesized complementary strand; 3' TTTTT single-stranded linker to array surface; dsDNA, one strand shown.
T1 sequence: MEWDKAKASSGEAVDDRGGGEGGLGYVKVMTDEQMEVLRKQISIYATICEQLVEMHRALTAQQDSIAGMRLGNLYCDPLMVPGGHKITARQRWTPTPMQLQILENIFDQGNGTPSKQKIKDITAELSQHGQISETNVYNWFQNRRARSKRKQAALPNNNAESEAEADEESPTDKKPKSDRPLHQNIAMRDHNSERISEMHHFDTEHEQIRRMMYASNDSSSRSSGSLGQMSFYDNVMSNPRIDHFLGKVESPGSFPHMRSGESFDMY
Outline: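 Polyhistidine-tagged DsRed fusions of transcription factors, joined at the N-terminus, were expressed in E. coli BL21-CodonPlus and isolated on Ni–NTA. They were incubated at 200 nM for 1 h at 25 °C on a custom Agilent array, double-stranded and BSA-blocked, in PBS with 2% BSA, salmon testes DNA and 50 µM zinc acetate. The binding signal is per-feature fluorescence intensity (arbitrary units) read on an Axon 4000B scanner after washing.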

Q: With “TCTTAATTACTTATAGAAAATAAATTCAAGAACGGGCCTACGGAGTCACCTAGTGCAG” as the sequence, how does the binding signal read?
A: The binding signal was 17000 fluorescence intensity (a.u.).

Q: “AGCAAAACACATGATTGATTTTATGGAGCTTCACGCCATACGGAGTCACCTAGTGCAG” was tested. Which binding signal did it give?
A: The binding signal was 31800 fluorescence intensity (a.u.).

Q: For “AAGATATGATAATTTAGTGTCCATTATGGTGTTTCTTAGTCGGAGTCACCTAGTGCAG”, which binding signal is on record?
A: Its binding signal is 3870 fluorescence intensity (a.u.).

Q: For “GCAGTGATTAACACATATGCACTTATAATCTGTCTAACTTCGGAGTCACCTAGTGCAG”, which binding signal is on record?
A: The binding signal was 17300 fluorescence intensity (a.u.).

Q: “ATGAATGGTGGAAGATTCTGATTGGTTAAGTAGTGGAGTTCGGAGTCACCTAGTGCAG” was tested. Which binding signal did it give?
A: The binding signal was 19100 fluorescence intensity (a.u.).

Q: With “AAATATATTCAATTAGCGATTTGATGAAACTAATTTAGTACGGAGTCACCTAGTGCAG” as the sequence, how does the binding signal read?
A: Its binding signal is 11200 fluorescence intensity (a.u.).

Q: For “ATTCTTAAAATGAATGACATAATTACTTATTTAGGCAAACCGGAGTCACCTAGTGCAG”, which binding signal is on record?
A: The binding signal was 8350 fluorescence intensity (a.u.).

Q: With “TGCCCTAATTACAACCCATTTGCTTATCTCTCTCCTCTCTCGGAGTCACCTAGTGCAG” as the sequence, how does the binding signal read?
A: Its binding signal is 12700 fluorescence intensity (a.u.).

Q: With “TCTTAATTTTCTTGTGGACGTAAATAGCAGCCAGCTGACCCGGAGTCACCTAGTGCAG” as the sequence, how does the binding signal read?
A: The binding signal was 12100 fluorescence intensity (a.u.).

Q: For “GCTAATTAAACCGAACAACCACCTCAGCTCTCGCCTGAGACGGAGTCACCTAGTGCAG”, which binding signal is on record?
A: Its binding signal is 21600 fluorescence intensity (a.u.).

Q: How did the binding signal turn out when “TGTTAATGAATCTAGATAGATATATCTATTTAGATTCATTCGGAGTCACCTAGTGCAG” was run?
A: The binding signal was 9660 fluorescence intensity (a.u.).

Q: Which binding signal does the source give for “CTTTTAATTGAACCGTGCTAATAATATAGATATAAAAGTTCGGAGTCACCTAGTGCAG” here?
A: The binding signal was 4230 fluorescence intensity (a.u.).

Q: Which binding signal does the source give for “ATATCTGATGATTTAAGTCCAGATGACATCCCTCCCACCGCGGAGTCACCTAGTGCAG” here?
A: The binding signal was 9130 fluorescence intensity (a.u.).

Q: For “CGATGACTCGTAATTTAATGTTTCATACCTCGCTTTATACCGGAGTCACCTAGTGCAG”, which binding signal is on record?
A: Its binding signal is 8520 fluorescence intensity (a.u.).

Q: How did the binding signal turn out when “TTATAACTGGCTTATAGTCTCTCGTAGACAACTTATGTTTCGGAGTCACCTAGTGCAG” was run?
A: The binding signal was 3580 fluorescence intensity (a.u.).

Q: For “TATAATGTCACTAAATGAGGGGATGGGGAGTGGAAGCCTGCGGAGTCACCTAGTGCAG”, which binding signal is on record?
A: Its binding signal is 6430 fluorescence intensity (a.u.).

Q: For “GATATGATTATTTATTTCTTTAAATGAAAATCATGTGTAACGGAGTCACCTAGTGCAG”, which binding signal is on record?
A: Its binding signal is 26000 fluorescence intensity (a.u.).

Q: With “TTATTAGAATATTGATTGAAATTTTCAGCCTCCAAACAACCGGAGTCACCTAGTGCAG” as the sequence, how does the binding signal read?
A: Its binding signal is 16100 fluorescence intensity (a.u.).

Q: “TTACAATTAACACTACTGTCTATGTCTCAATTCATACTATCGGAGTCACCTAGTGCAG” was tested. Which binding signal did it give?
A: Its binding signal is 3650 fluorescence intensity (a.u.).

Q: For “TTAGCACGTGATTAATTGATTATTAACTACTTAAAATTTTCGGAGTCACCTAGTGCAG”, which binding signal is on record?
A: Its binding signal is 25800 fluorescence intensity (a.u.).

Q: “CAAGATTGTCAAGCACCGGCATCCTCGACTTATCGACGTGCGGAGTCACCTAGTGCAG” was tested. Which binding signal did it give?
A: Its binding signal is 4510 fluorescence intensity (a.u.).

Q: How did the binding signal turn out when “TTTTGACCGTGGTTAATTTGCCACGTTAGCTAATGCCATTCGGAGTCACCTAGTGCAG” was run?
A: Its binding signal is 11200 fluorescence intensity (a.u.).

Q: For “TCATTCTAATTATTTGATATTAGGTCTTATATATAGATTTCGGAGTCACCTAGTGCAG”, which binding signal is on record?
A: The binding signal was 5560 fluorescence intensity (a.u.).

Q: How did the binding signal turn out when “TGTGATTGGTGCCACCTCCTCCTCCTCTGCCTCTCTCCTCCGGAGTCACCTAGTGCAG” was run?
A: Its binding signal is 30100 fluorescence intensity (a.u.).

Q: For “TTAAAATTTCAGTTGATTAAAACTACGTACTAACTGGTCGCGGAGTCACCTAGTGCAG”, which binding signal is on record?
A: Its binding signal is 27600 fluorescence intensity (a.u.).

Q: Which binding signal does the source give for “AACCCATAAATTATGTTTTAATTAATTCGTTTATATTATCCGGAGTCACCTAGTGCAG” here?
A: The binding signal was 20000 fluorescence intensity (a.u.).

Q: With “CTGTTTTAATTGGAGCCCACCCGTTTCGGCTATCTCCTCCCGGAGTCACCTAGTGCAG” as the sequence, how does the binding signal read?
A: Its binding signal is 30700 fluorescence intensity (a.u.).

Q: How did the binding signal turn out when “GCACGAGAAACTGGGTTAAATTGACAAGGGTATAATTGGACGGAGTCACCTAGTGCAG” was run?
A: The binding signal was 24900 fluorescence intensity (a.u.).

Q: With “CTGGAATGAGATTCAATCATTTTGGAGTTGACAATCCCAACGGAGTCACCTAGTGCAG” as the sequence, how does the binding signal read?
A: The binding signal was 15700 fluorescence intensity (a.u.).

Q: How did the binding signal turn out when “CACTAAGTTAATTAGGACCGGAGTTATCCAAATCCAGATACGGAGTCACCTAGTGCAG” was run?
A: Its binding signal is 10100 fluorescence intensity (a.u.).

Q: How did the binding signal turn out when “CTCGCCGTCCATCCTTCCCTGCGTCCAATCCCCACCCTCCCGGAGTCACCTAGTGCAG” was run?
A: Its binding signal is 60200 fluorescence intensity (a.u.).

Q: With “CAGGATTGATTCCCACTCACTGCCTGATAGCAGGCTTGGCCGGAGTCACCTAGTGCAG” as the sequence, how does the binding signal read?
A: Its binding signal is 47200 fluorescence intensity (a.u.).

Q: For “TGGAACGTATATATGATTGTCATTGACTGACGACACAATCCGGAGTCACCTAGTGCAG”, which binding signal is on record?
A: The binding signal was 26600 fluorescence intensity (a.u.).

Q: With “TCATGCATTACAATTGATCATATTGTACCCCAATTTACAACGGAGTCACCTAGTGCAG” as the sequence, how does the binding signal read?
A: Its binding signal is 3780 fluorescence intensity (a.u.).

Q: How did the binding signal turn out when “TTTCATTCTAATTAAATTAGATAGACGGACATCATTAGTCCGGAGTCACCTAGTGCAG” was run?
A: Its binding signal is 34400 fluorescence intensity (a.u.).

Q: With “AGTTTGTGATTGTAATGTTGTGCTACACTGTCCTTATCTTCGGAGTCACCTAGTGCAG” as the sequence, how does the binding signal read?
A: The binding signal was 17600 fluorescence intensity (a.u.).

Q: For “TTTTAGTTCAGTTAGTGCAATTAATTCACCTGTGGCGACGCGGAGTCACCTAGTGCAG”, which binding signal is on record?
A: Its binding signal is 4930 fluorescence intensity (a.u.).

Q: Which binding signal does the source give for “TTGCTATAAATCTGAACACATAATTATTTTGATTCATAGCCGGAGTCACCTAGTGCAG” here?
A: The binding signal was 4890 fluorescence intensity (a.u.).

Q: With “ACCAATTCTGCCAATCATGAAGTTCAGTTCCGATGAAGAACGGAGTCACCTAGTGCAG” as the sequence, how does the binding signal read?
A: Its binding signal is 10500 fluorescence intensity (a.u.).

Q: How did the binding signal turn out when “AAGATGATAGACTAGACGATCTAAATTAGAAGCCTCACATCGGAGTCACCTAGTGCAG” was run?
A: The binding signal was 35200 fluorescence intensity (a.u.).

Q: “GCAAGTAAATTGACATTCCTGCCCCTCCTCTTCCGTCCTACGGAGTCACCTAGTGCAG” was tested. Which binding signal did it give?
A: Its binding signal is 38400 fluorescence intensity (a.u.).

Q: How did the binding signal turn out when “TCAGAAATAACATATCACTGATTTATAAACTCTCTCTATCCGGAGTCACCTAGTGCAG” was run?
A: The binding signal was 4440 fluorescence intensity (a.u.).

Q: “TTGATAATTACTAGTTACTATATAGACAAATATATGAATACGGAGTCACCTAGTGCAG” was tested. Which binding signal did it give?
A: Its binding signal is 6320 fluorescence intensity (a.u.).

Q: With “GCCTAATTGCTTAATTAGCAGCCAACGGATTCGATTGATCCGGAGTCACCTAGTGCAG” as the sequence, how does the binding signal read?
A: The binding signal was 53900 fluorescence intensity (a.u.).

Q: For “TCCAGATTTAAATCCGAATTACACATCACATAACTTGAACCGGAGTCACCTAGTGCAG”, which binding signal is on record?
A: Its binding signal is 10100 fluorescence intensity (a.u.).

Q: Which binding signal does the source give for “ATCATAATTTCAACTTGTTGAACATACAGATTACCTGCTTCGGAGTCACCTAGTGCAG” here?
A: The binding signal was 7020 fluorescence intensity (a.u.).

Q: For “ACACACTAATCACGATTAGCCTAACAAAACTCACGTACATCGGAGTCACCTAGTGCAG”, which binding signal is on record?
A: The binding signal was 20600 fluorescence intensity (a.u.).

Q: With “ACAATTTGTCACCTTAATCACAAGCTAACCACGCATGGCCCGGAGTCACCTAGTGCAG” as the sequence, how does the binding signal read?
A: Its binding signal is 4310 fluorescence intensity (a.u.).

Q: With “ACGGATTAATTAGGTTTAATAAATTCGTCTCGTAGTTTCTCGGAGTCACCTAGTGCAG” as the sequence, how does the binding signal read?
A: The binding signal was 22800 fluorescence intensity (a.u.).

Q: “AGTCTGTAATATAATTTAATCTAGAATTTAATAAAATGGACGGAGTCACCTAGTGCAG” was tested. Which binding signal did it give?
A: Its binding signal is 10300 fluorescence intensity (a.u.).

Q: With “AATAAATCATTACTGTATGATTAACCAAGTATTAATTATTCGGAGTCACCTAGTGCAG” as the sequence, how does the binding signal read?
A: The binding signal was 14200 fluorescence intensity (a.u.).

Q: For “GATTAATTTAGCTCTGCCTCCAGAAATTTCATCTCCTCTTCGGAGTCACCTAGTGCAG”, which binding signal is on record?
A: Its binding signal is 8010 fluorescence intensity (a.u.).

Q: With “TTACTGATAGACCTCATTTGAATGCAAGACAATGGTAGGCCGGAGTCACCTAGTGCAG” as the sequence, how does the binding signal read?
A: The binding signal was 6280 fluorescence intensity (a.u.).

Q: For “ACTCCTTTTCCAACCTGTTAATGGGCCTGACTGGGCCTGACGGAGTCACCTAGTGCAG”, which binding signal is on record?
A: Its binding signal is 3190 fluorescence intensity (a.u.).
